Measured values taken from the supplement of paper PMC4604168 (melanoma cell lines).
The list shows a part of the results. Most values come without repeats; read them as rough.

Tests used:
Assay in all cases: cell count relative to DMSO control; melanoma cells; higher = more viable cells
Settings in all cases: library dose: low library concentration; 72 h
MZ2-MEL = system: MZ2-MEL
MeWo = system: MeWo
RPMI7951 = system: RPMI7951
RVH-421 = system: RVH-421
SkMel28 = system: SkMel28
SkMel2 = system: SkMel2
SkMel30 = system: SkMel30
UACC62 = system: UACC62
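Also: cell number obtained by counting DAPI-stained nuclei in high-throughput microscope images with image analysis software, screen run in 1,536-well plates.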

| Compound | cell count (MZ2-MEL) | cell count (MeWo) | cell count (RPMI7951) | cell count (RVH-421) | cell count (SkMel28) | cell count (SkMel2) | cell count (SkMel30) | cell count (UACC62) |
| --- | --- | --- | --- | --- | --- | --- | --- | --- |
| N#CC[C@H](C1CCCC1)n1cc(-c2ncnc3[nH]ccc23)cn1 [ruxolitinib] + C[C@@H](N)c1ccc(C(=O)Nc2ccnc3[nH]ccc23)cc1 [RKI983] (first compound 1 µM, partner dose 0.4 µM) | 92.4% | 89% | 86% | 57% | 111% | 94% | 106% | 139% |
| N#CC[C@H](C1CCCC1)n1cc(-c2ncnc3[nH]ccc23)cn1 [ruxolitinib] + CS(=O)(=O)c1ccc(C(=O)Nc2ccc(Cl)c(-c3ccccn3)c2)c(Cl)c1 [vismodegib] (first compound 1 µM, partner dose 1 µM) | 92.5% | 95.8% | 69.6% | 86.7% | 108% | 101% | 99.8% | 108% |
| Cc1cc(Nc2cc(N3CCN(C)CC3)nc(Sc3ccc(NC(=O)C4CC4)cc3)n2)n[nH]1 [Tozasertib] + NC(=O)c1ccc(N(C(N)=O)c2c(F)cccc2F)nc1-c1ccc(F)cc1F [VX702] (first compound 0.006 µM, partner dose 0.4 µM) | 103% | 89.5% | 84.5% | 91.8% | 79.8% | 97.1% | 91.3% | 105% |
| N#CC[C@H](C1CCCC1)n1cc(-c2ncnc3[nH]ccc23)cn1 [ruxolitinib] + CC[C@]1(O)C[C@H]2CN(CCc3c([nH]c4ccccc34)[C@@](C(=O)OC)(c3cc4c(cc3OC)N(C=O)[C@H]3[C@@](O)(C(=O)OC)[C@H](OC(C)=O)[C@]5(CC)C=CCN6CC[C@]43[C@@H]65)C2)C1 [vincristine] (first compound 1 µM, partner dose 0.0001 µM) | 105% | 102% | 71% | 82% | 111% | 99.6% | 108% | 90.3% |
| N#CC[C@H](C1CCCC1)n1cc(-c2ncnc3[nH]ccc23)cn1 [ruxolitinib] + O=C(O)c1ccc2c(c1)nc(Nc1cccc(Cl)c1)c1ccncc12 [CX4945] (first compound 1 µM, partner dose 0.4 µM) | 83.7% | 91.4% | 113% | 99.9% | 95.3% | 102% | 92% | 97.7% |
| Cc1cc(Nc2cc(N3CCN(C)CC3)nc(Sc3ccc(NC(=O)C4CC4)cc3)n2)n[nH]1 [Tozasertib] + COCC[n+]1c2c(n(Cc3cnccn3)c1C)C(=O)c1ccccc1C2=O [YM155] (first compound 0.006 µM, partner dose 0.0004 µM) | 60.6% | 88.9% | 92% | 69% | 95.2% | 99.2% | 96% | 86.5% |
| N#CC[C@H](C1CCCC1)n1cc(-c2ncnc3[nH]ccc23)cn1 [ruxolitinib] + Cc1cn(-c2cc(NC(=O)c3ccc(C)c(Nc4nccc(-c5cccnc5)n4)c3)cc(C(F)(F)F)c2)cn1 [nilotinib] (first compound 1 µM, partner dose 0.2 µM) | 92.5% | 88.9% | 87.3% | 102% | 123% | 96.3% | 97.2% | 107% |
| CC[C@]1(O)C[C@H]2CN(CCc3c([nH]c4ccccc34)[C@@](C(=O)OC)(c3cc4c(cc3OC)N(C=O)[C@H]3[C@@](O)(C(=O)OC)[C@H](OC(C)=O)[C@]5(CC)C=CCN6CC[C@]43[C@@H]65)C2)C1 [vincristine] + Cc1ccc(Nc2nccc(N(C)c3ccc4c(C)n(C)nc4c3)n2)cc1S(N)(=O)=O [Pazopanib] (first compound 0.0001 µM, partner dose 0.4 µM) | 80.5% | 98.6% | 61.2% | 61.9% | 63.3% | 83.4% | 69% | 69.1% |
| Cc1cc(Nc2cc(N3CCN(C)CC3)nc(Sc3ccc(NC(=O)C4CC4)cc3)n2)n[nH]1 [Tozasertib] + C=CCNC1=C2C[C@@H](C)C[C@H](OC)[C@H](O)[C@@H](C)/C=C(\C)[C@H](OC(N)=O)[C@@H](OC)/C=C\C=C(/C)C(=O)NC(=CC1=O)C2=O [Tanespimycin] (first compound 0.006 µM, partner dose 0.002 µM) | 98.3% | 83.3% | 110% | 81.6% | 87.8% | 90.1% | 98.2% | 91.3% |
| CC[C@]1(O)C[C@H]2CN(CCc3c([nH]c4ccccc34)[C@@](C(=O)OC)(c3cc4c(cc3OC)N(C=O)[C@H]3[C@@](O)(C(=O)OC)[C@H](OC(C)=O)[C@]5(CC)C=CCN6CC[C@]43[C@@H]65)C2)C1 [vincristine] + Cn1sc(=O)n(Cc2ccccc2)c1=O [TDZD-8] (first compound 0.0001 µM, partner dose 0.4 µM) | 109% | 93.7% | 68.8% | 87.8% | 68.8% | 99.2% | 71.1% | 82.8% |
| Cc1cc(Nc2cc(N3CCN(C)CC3)nc(Sc3ccc(NC(=O)C4CC4)cc3)n2)n[nH]1 [Tozasertib] + Cn1c(=O)n(-c2ccc(C(C)(C)C#N)cc2)c2c3cc(-c4cnc5ccccc5c4)ccc3ncc21 [NVP-BEZ235] (first compound 0.006 µM, partner dose 0.004 µM) | 102% | 89.9% | 85.3% | 91.8% | 89.7% | 91.8% | 93.6% | 101% |
| Cc1cc(Nc2cc(N3CCN(C)CC3)nc(Sc3ccc(NC(=O)C4CC4)cc3)n2)n[nH]1 [Tozasertib] + CN(c1ncccc1CNc1nc(Nc2ccc3c(c2)CC(=O)N3)ncc1C(F)(F)F)S(C)(=O)=O [PF562271] (first compound 0.006 µM, partner dose 0.08 µM) | 92.2% | 90.2% | 75.9% | 102% | 92.4% | 92.5% | 93.9% | 93% |
| N#CC[C@H](C1CCCC1)n1cc(-c2ncnc3[nH]ccc23)cn1 [ruxolitinib] + COc1cc([C@@H]2c3cc4c(cc3[C@@H](O[C@@H]3O[C@@H]5CO[C@@H](C)O[C@H]5[C@H](O)[C@H]3O)[C@H]3COC(=O)[C@H]23)OCO4)cc(OC)c1O [etoposide] (first compound 1 µM, partner dose 0.02 µM) | 112% | 91.1% | 96.6% | 104% | 104% | 104% | 121% | 116% |
| CC[C@]1(O)C[C@H]2CN(CCc3c([nH]c4ccccc34)[C@@](C(=O)OC)(c3cc4c(cc3OC)N(C=O)[C@H]3[C@@](O)(C(=O)OC)[C@H](OC(C)=O)[C@]5(CC)C=CCN6CC[C@]43[C@@H]65)C2)C1 [vincristine] + Nc1nc(F)nc2c1ncn2[C@@H]1O[C@H](CO)[C@@H](O)[C@@H]1O [fludarabine] (first compound 0.0001 µM, partner dose 0.2 µM) | 92.1% | 24.7% | 65.2% | 64% | 62.1% | 10.8% | 14.8% | 45.8% |
| CC[C@]1(O)C[C@H]2CN(CCc3c([nH]c4ccccc34)[C@@](C(=O)OC)(c3cc4c(cc3OC)N(C=O)[C@H]3[C@@](O)(C(=O)OC)[C@H](OC(C)=O)[C@]5(CC)C=CCN6CC[C@]43[C@@H]65)C2)C1 [vincristine] + C#Cc1cccc(Nc2ncnc3cc(OCCOC)c(OCCOC)cc23)c1 [erlotinib] (first compound 0.0001 µM, partner dose 0.8 µM) | 57.5% | 52.8% | 46.5% | 76.8% | 56.2% | 53.7% | 52.3% | 34.3% |
| CC[C@]1(O)C[C@H]2CN(CCc3c([nH]c4ccccc34)[C@@](C(=O)OC)(c3cc4c(cc3OC)N(C=O)[C@H]3[C@@](O)(C(=O)OC)[C@H](OC(C)=O)[C@]5(CC)C=CCN6CC[C@]43[C@@H]65)C2)C1 [vincristine] + O=C(/C=C/c1cccnc1)NCCCCC1CCN(C(=O)c2ccccc2)CC1 [FK866] (first compound 0.0001 µM, partner dose 0.01 µM) | 46.1% | 80.4% | 58.3% | 55.5% | 90% | 53.9% | 59.9% | 63.8% |
| Cc1cc(Nc2cc(N3CCN(C)CC3)nc(Sc3ccc(NC(=O)C4CC4)cc3)n2)n[nH]1 [Tozasertib] + O=c1[nH]nc(Sc2ncc([N+](=O)[O-])s2)n1-c1ccc2c(c1)OCCO2 [BI78D3] (first compound 0.006 µM, partner dose 0.2 µM) | 102% | 88.5% | 109% | 98.2% | 96.9% | 95.7% | 112% | 91.8% |
| N#CC[C@H](C1CCCC1)n1cc(-c2ncnc3[nH]ccc23)cn1 [ruxolitinib] + C#Cc1cccc(Nc2ncnc3cc(OCCOC)c(OCCOC)cc23)c1 [erlotinib] (first compound 1 µM, partner dose 0.8 µM) | 104% | 90.2% | 92.6% | 89.6% | 107% | 104% | 103% | 121% |
| Cc1cc(Nc2cc(N3CCN(C)CC3)nc(Sc3ccc(NC(=O)C4CC4)cc3)n2)n[nH]1 [Tozasertib] + C[C@@H](N)c1ccc(C(=O)Nc2ccnc3[nH]ccc23)cc1 [RKI983] (first compound 0.006 µM, partner dose 0.4 µM) | 84% | 94.6% | 80.8% | 62.1% | 97.1% | 99.6% | 89.8% | 75.9% |
